# Assay results: the supplement of paper PMC12067230
# This is a noisy data set.
# B1: library; a variant is named by its letters at X, in order (parent)
# chain: EASNCFAIRHFENKFAVETLICXXXXXXXX
# B2: library; a variant is named by its letters at X, in order (parent)
# chain: EASNCFAIRHFENKFAVETLICXXXXXXXXX
# Variants of: B1
# Assay: amyloid nucleation score relative to library mode (yeast Sup35 reporter selection) (log enrichment difference); higher = more amyloid nucleation; sequences are the first 22 residues of the Bri2 peptide extended by up to 12 random residues
# Conditions: random library (experiment): 2;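 active = nucleation score significantly above 0 at FDR 0.05; inactive = not significantly above 0 or absent from output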
# Protocol: (§1)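 Random C-terminal extensions of the 22-aa Bri2 peptide by 12 NNK codons; premature stops give shorter extensions. Peptides were fused to the Sup35 nucleation domain in S. cerevisiae [psi-pin-] and selected on -ADE-URA plates for 7 d at 30 °C. The nucleation score is log(output/input), centred to the mode of each of 3 independent libraries (1 input, 3 technical output replicates), with duplicates merged. Sequences absent from the output ('random_non_nuc') were imputed with the library mode value, so they are given as censored (<). Nucleators are scores significantly >0 at FDR 0.05.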
# 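Also: [psi-pin-] Saccharomyces cerevisiae expressing SupN fusions, induced by 100 µM Cu2SO4, selected 7 d at 30 °C without adenine and uracil, scored by deep sequencing of output versus input.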
row,Variant,amyloid nucleation score
1,WNWYYYIS,inactive
2,GPVPSAYV,inactive
3,IQPGGSFV,3.72
4,ARESRIAN,inactive
5,LRFCHICV,inactive
6,HRFDCVKG,inactive
7,NRHLTKLY,inactive
8,RRLMADIS,inactive
9,LRLWGKLC,-0.0677
10,FSGAQERW,5.1
11,LSGMRLLV,inactive
12,DSGTCGLG,inactive
13,NSKICLGN,6.04
14,TSKKVCMC,inactive
15,GSKYRHTI,inactive
16,ISLFTRGY,3.57
17,CSRYVKGR,inactive
18,ASSNCTAF,4.67
19,FSTRVLCF,5.59
20,PSYVNRVR,inactive
21,MTGYSSHC,inactive
22,WTHCCTHY,7.86
23,VTMAVVGE,0.693
24,QTMGALTP,0.72
25,FTQNSFDS,4.52
26,VTSCYCCV,2.9
27,TTSFWICM,6.78

row,Variant,amyloid nucleation score
1,CTSRRCCL,5.75
2,FVAILWCQ,inactive
3,YVFYYHSK,inactive
4,RVHYMAFY,inactive
5,EVLCPTIM,inactive
6,EVLRLGQS,5
7,FVLVFMCY,inactive
8,CVLVNRYR,7.44
9,TVPVTSRY,inactive
10,TVQPLGTV,-0.322
11,NVSFVYIC,5.68
12,IVSLSGSF,inactive
13,DVWFKLNS,inactive
14,CVWYSYAW,7.48
15,VWIANNSV,inactive
16,GWKGWHSA,3.95
17,CWNSISHV,8.39
18,FWSGMYWH,inactive
19,PWSSGLAG,2.71
20,LYCLWDGL,3.47
21,IYIQMHCR,inactive
22,RYISQHDV,inactive
23,YYLEVIAC,inactive
24,LYMMIHYY,inactive
25,GYMTSARR,3.17
26,VYSHNFYN,7.3
27,CYYCQLNY,6.28

# Same assay, conditions: random library (experiment): 3
row,Variant,amyloid nucleation score
1,NAAWRMDS,1.3
2,QACLHTTV,4.31
3,CAHCCRNN,7.56
4,VASRSAVI,inactive
5,TATDMVYR,inactive
6,FATSGAGE,5.21
7,LCDQLVRK,8.43
8,NCSCKLVV,7.2
9,QCSEVRQW,6.94
10,PCVGSPRV,6.73
11,VDASKRVT,4.46
12,NDMSMSDF,inactive
13,EDQVTSQL,inactive
14,WDVRVVGS,inactive
15,GEKGSLCG,inactive
16,VELYNSVY,inactive
17,AETSIGSA,inactive
18,VEWVQSKV,0.788
19,TEYVNEGM,0.711
20,DFGMKSCG,inactive
21,QFVGVRRC,inactive
22,FGCACIYR,8.9
23,GGCPQLRL,-0.0354
24,VGRWSSHG,inactive
25,LGVRIGML,inactive

row,Variant,amyloid nucleation score
1,RGVVCRDG,inactive
2,PGWDAKRS,inactive
3,NHAFQGCG,inactive
4,RHESCLMV,inactive
5,THHYSSDR,inactive
6,VINGLTMW,4.02
7,YIPSSRMV,1.2
8,LKVQWRRD,3.78
9,WKVWMGYW,inactive
10,RLCLAECR,inactive
11,MLLCWWFV,inactive
12,ELLTGCIV,inactive
13,DLMGRMLP,0.903
14,GLQGAARY,inactive
15,FLSSTFRD,inactive
16,ALVVLCGR,4.55
17,LLVYSCAG,inactive
18,TMFYDLHA,inactive
19,GMSWGRSG,5.13
20,CMTYRIWL,inactive
21,HMVRRGSA,3.36
22,WMWLSISM,inactive
23,DNGFWGRA,inactive
24,YNMIMYSC,6.42
25,LNYNGAVV,5.37

row,Variant,amyloid nucleation score
1,APGRWKEA,inactive
2,QPKPSCVY,0.104
3,CPRDEVSV,inactive
4,QQEVWRQP,inactive
5,DQVRARGT,inactive
6,MREVVGFN,inactive
7,FRFKSFVI,inactive
8,IRHREWQG,2.91
9,RRKARLVA,inactive
10,YRLQGTDH,2.93
11,GRRSNLKH,inactive
12,GRRYGWYF,inactive
13,MRVFWDCV,inactive
14,LSDMLEAR,0.221
15,RSGLHSCM,inactive
16,VSGSRRDT,inactive
17,ESGWIQTL,inactive
18,GSKARRWS,inactive
19,RSKDSPRM,inactive
20,YSRMNQSG,4.28
21,WSSRSERC,4.51
22,LSSSLCDT,6.58
23,PSVFIEFR,6.48
24,LSVLVVPN,4.76
25,VSWLTAVG,inactive

row,Variant,amyloid nucleation score
1,WSWRNTTR,inactive
2,LTILCRIL,inactive
3,GTKTLATQ,inactive
4,LTRSITGS,inactive
5,GTSGGRYT,inactive
6,WVHGNQSF,2.16
7,VVIGFARG,inactive
8,RVIWRDKA,-0.0945
9,VVQLAGRW,-0.532
10,IVQRSQLS,1.72
11,VVRSSHKP,inactive
12,VVSSHCAL,0.918
13,AVSYTSLL,inactive
14,NVTVELRM,8.65
15,AVVGRWNL,2.06
16,WWAVTTSA,inactive
17,WWFAYRRR,inactive
18,GWRTMRGG,inactive
19,TWVITSFP,inactive
20,LWVTTNGI,inactive
21,AWYLISGN,-0.558
22,LYCNTVRK,5.06
23,IYVRRWPI,inactive

# Variants of: B2
# Assay: as above
# Conditions: random library (experiment): 1
# Protocol: as §1
row,Variant,amyloid nucleation score
1,LAMYDGSLG,inactive
2,NASLWAQEQ,1.26
3,KCAFMLGSY,inactive
4,RCFMRICAG,inactive
5,WCLSTQFVV,inactive
6,HCLTSNACL,6.39
7,VCNAYPAVV,4.62
8,LCPRAREHG,8.6
9,RCSWVSERG,-0.171
10,LCTNGGHKT,6.66
11,MCTPVSLWV,4.52
12,FCVCYIPNR,2.18
13,CDERNYSVV,inactive
14,VDGLVRCDV,-0.0194
15,EDLGCQEMP,inactive
16,DDSVPFMLY,1.56
17,FDTTEESPR,0.848
18,GEKKTYYWM,-0.0479
19,PEMSSTAPS,0.855
20,LEPARVQFR,inactive
21,DESLLARCL,inactive
22,KESVFRGIE,inactive
23,DEVIGLTCI,inactive
24,PEVVGHWGE,-0.481

row,Variant,amyloid nucleation score
1,PFDGEVGRF,inactive
2,LFERNTSER,4.58
3,QFKRSVCTN,0.661
4,RFQGMEKVA,inactive
5,VFRFRSTFY,-0.129
6,GFVVRNGTI,7.81
7,LFWFGGRMA,3.89
8,VFYLTGYAR,inactive
9,TGAPQKGLC,inactive
10,RGEWSKLLC,inactive
11,FGFGLMFET,5.44
12,CGGMALGPA,8.36
13,MGHASPSPS,inactive
14,HGLGAVVCA,inactive
15,DGLGFTAVY,-0.0846
16,PGLNLVSSR,inactive
17,MGLPLCHVL,3.26
18,PGMAARRVR,-0.288
19,RGPFSACKS,inactive
20,YGPGMSSGW,5.32
21,AGPVLTTAP,inactive
22,RGQMVPSSL,inactive
23,YGSAHCDKS,3.52
24,KGSGGLMFG,-0.372

row,Variant,amyloid nucleation score
1,YGSRMKLAG,inactive
2,VGSVSSRVE,inactive
3,LGTSNTTVG,4.69
4,PGYGRRSGE,inactive
5,IGYRVGHTL,inactive
6,CHLVVGLAE,5.92
7,DHVADWLSC,5.37
8,GICGRSLLS,5.5
9,GIHMVFDEA,4.66
10,LILWSGRGH,inactive
11,AIMSQVHRY,4.65
12,FIRRVHIVR,5.37
13,NIRSDHAFG,6.6
14,EKCGGCRTL,inactive
15,AKSRRSSRR,inactive
16,VLCEHRSMI,2.51
17,DLCLRWRKC,inactive
18,GLDGLSLLS,inactive
19,PLDPFTVRY,inactive
20,WLGIRRRMS,inactive
21,VLGLGRLER,5.59
22,CLGSYAAKA,6.45
23,VLPPHVFLY,4.95
24,LLPWLPFCS,5.08

row,Variant,amyloid nucleation score
1,LLSLCYNCF,-0.187
2,GLTMRNPLA,inactive
3,WLVEDQVAQ,inactive
4,DMDDSEELT,inactive
5,HMTCNGFWG,5.14
6,RNGHFDVYP,inactive
7,WNGQWYGTR,5.4
8,YNKHRYLSG,inactive
9,RNKPTSGTT,inactive
10,LNRRVVQFT,inactive
11,GNSVSRRDL,0.703
12,LNTTNPLGR,-0.00976
13,VNVIPRVVV,inactive
14,YPCRCKGKT,8.92
15,MPRVRSIVV,0.498
16,RPVVFCSHT,inactive
17,FQAWVRGRN,5.53
18,VQGSIPLEG,inactive
19,DQLEDIIQG,inactive
20,VQNAVMTVQ,inactive
21,IQQARPCVL,inactive
22,DREVSRVRG,-0.627
23,RRGPLGGEG,inactive
24,GRGQIREEV,inactive

row,Variant,amyloid nucleation score
1,YRIEALSGG,inactive
2,RRIRLRFSS,inactive
3,GRKAMTTDS,inactive
4,CRLTSRCIN,inactive
5,VRRLRVLGE,inactive
6,CRSSDAEVQ,2.94
7,RRVAVYRLE,inactive
8,MRWAGFLVS,inactive
9,CRWGKVSLE,0.683
10,GRYQVRVMW,3.12
11,RSAPPGWLR,2.4
12,RSCMEGYSG,inactive
13,ASCVAVAAT,-0.517
14,VSDGVRGNG,inactive
15,VSEHEEVRW,inactive
16,LSGMSGELP,inactive
17,VSGVSWTLT,inactive
18,RSLLCNLMG,3.17
19,KSMACTAGR,0.92
20,FSQVPPGLC,3.05
21,RSRMCDARP,-0.00976
